# The supplement of paper PMC11417369
# ± gives the standard deviation of the averaged measurements. This is one part of the list.
# Test system: PfAP2-I AP2 domain 3 (GST-tagged)
# Assay: gcPBM binding intensity (ln(normalized median fluorescence intensity)); higher = stronger DNA binding
# Procedure, shortened: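 Using an Agilent 4 × 180k array, primer-extended double-stranded 36-bp intergenic genomic probes and negative controls were exposed for 1 h to GST-fused P. falciparum DNA-binding domains expressed in E. coli. Binding was carried out in 1× PBS with 1% milk, 0.2 mg/ml BSA, 0.5% salmon testes DNA and 0.03% Triton X-100, and protein was detected with Alexa488 anti-GST antibody and a 488 nm scan. Binding intensity is the highest Masliner-normalised natural-log median intensity across replicate spots of either probe orientation.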
row,Sequence,gcPBM binding intensity (ln)
1,ATATATATAATATAATGTACATATATTTTATTTTTA [XGTACX_site3819],8.21 ± 0.47
2,ACGTATTAGATAAATACACACACAAGCATATATTTT [CACACA_site9135],7.72 ± 0.52
3,TAATGTATTATATTTAGTACATATAAAAATAATTTT [XGTACX_site6886],7.51 ± 0.32
4,ATATATTAATTTAATTGTACGAATAAAAAAAAAAAA [XGTACX_site223],8.19 ± 0.62
5,TATATACATTTATGTACACACACATATATGTATATT [CACACA_site8971],7.73 ± 0.45
6,AAAGCACCCAAGAATACACACAAATATTATAAAAAA [CACACA_site111],8.07 ± 0.71
7,AAAAGGTATGTTATACATAGATATGCACATATATGT [TGCATGCA_negctrl_site96],8.96 ± 0.45
8,ATTAATATAAAAAGGTAAATGGATGTAATATATATA [XGTACX_negctrl_site2],8.21 ± 0.67
9,AAAATTGTTATTTTATGTACTTATATTTATTTATTT [XGTACX_site3478],7.6 ± 0.44
10,TTTTTTTTGTGTATTTGTACATAATATATATATATA [XGTACX_site7092],9.15 ± 0.18
11,TCGTAATTTTTTTTTATATATTAGGAATTTATAAAA [XGTACX_negctrl_site409],7.43 ± 0.39
12,TAATACCATTGTCATGCATGCACATTATTACTCTAA [TGCATGCA_site160],8.26 ± 0.76
13,ATATTATATTTCTTTTGTACATATTATATAATATAT [XGTACX_site7198],8.1 ± 0.56
14,TTTTTTTTTAAATAATGTACTTTTCATTATTTAGAT [XGTACX_site1706],7.81 ± 0.37
15,AAAGAAAAAAATAATTGTACATTTATATTTAATTTA [XGTACX_site8003],7.36 ± 0.31
16,TTTTTATTTATTAATACACACACACCCACCCACAAA [CACACA_site7965],9.18 ± 0.39
17,CACATACACATACAAACACACATTAGATATAAATAT [CACACA_site6854],8.01 ± 0.13
18,AAAAAAAATTAATAGGGTACATGAAAAGTGGAATAT [XGTACX_site618],8.45 ± 0.54
19,ATAGAAGAAATATGCACACATACATTGAAATGTTTT [CACACA_site321],8.81 ± 0.092

row,Sequence,gcPBM binding intensity (ln)
1,AAAAAAAAATTAAAAACACACATATAAATAAATATA [CACACA_site6845],7.58 ± 0.52
2,AACAAAATAGGGAACACACACATGTCAATATATAAA [CACACA_site2596],7.9 ± 0.62
3,TGAACACGCACAAATACACACAAAAAAAATAAATAA [CACACA_site6257],8.12 ± 0.092
4,CCATTAAGACACATTGCACACGTGCACCCATAGAAA [CACACA_site4388],10.79 ± 0.021
5,ATAGTATAACAGCAATGTACACATATTTGTGTATAT [XGTACX_site7899],7.82 ± 0.4
6,TATATATATAAACACACACACACATATATATATATT [CACACA_site8814],8.6 ± 0.36
7,ATATATATTTAAATGTGTACTCATTTATTTTATGTC [XGTACX_site4984],8.11 ± 0.28
8,TTTTTTTTTTTTGTCACACATATATTTGTATTTATA [CACACA_site5234],8.16 ± 0.73
9,TGATATTTATAATAAATATTATAATAAAATCAAACA [XGTACX_negctrl_site219],7.38 ± 0.54
10,ATATATATTTTTATTTGTACATAATTTTTTTTGTGA [XGTACX_site6378],8.02 ± 0.59
11,ATATATGTAATAAATAGTACACACACACATATATAT [XGTACX_site2817],8.24 ± 0.49
12,TTTTTTTTTTTTTGCACACACATATATAGATATATA [CACACA_site7784],9.69 ± 0.26
13,ATAAAATTGTTTAAATGTACATATGAACAGTCAGTA [XGTACX_site5140],7.82 ± 0.54
14,AAATTACTTTCACAGTGTACTTGGAAAAAAAAAAGA [XGTACX_site1046],7.84 ± 0.54
15,TTTTTTTTTTTTTTTTGTACGTAATATATGATTAAT [XGTACX_site6876],8.18 ± 0.69
16,CATTTTATCAAAAGTGGTACAACCCTTTCAAAAAAT [XGTACX_site341],7.65 ± 0.49
17,AGATATAATAAATATACACACATATATATATATATA [CACACA_site962],9.2 ± 0.76
18,TGAAAAATGTTGATGTGTACTTATATAGTGTGTTAA [XGTACX_site2100],8.2 ± 0.36
19,TAATTTTATATATGCACACAAAATATGTTCATATAA [CACACA_site4076],9.08 ± 0.24

row,Sequence,gcPBM binding intensity (ln)
1,TTTAACATAAATTAAACACACAATATAATACATTAA [CACACA_site1237],7.61 ± 0.43
2,TTACATAATATATGTACACACGCAAATACTTATAAT [CACACA_site7995],8.04 ± 0.25
3,TATAAATATGTTCTTACACACACGAATATAAATATG [CACACA_site7537],7.79 ± 0.31
4,TATATTTCTTATTTCTTATTTTGTCATCACCTTTTT [CACACA_negctrl_site1115],7.65 ± 0.67
5,CACACCCACAAAAACACACACAAAGGTGTTCTTATA [CACACA_site1293],7.54 ± 0.57
6,TATTTATTTTTTTGCACACATATTTTACATTTTAAT [CACACA_site3181],9.755 ± 0.021
7,ATAACATTCATATTCACACAAAAATATACTACATAG [CACACA_site4529],7.73 ± 0.48
8,TATATATATATATATACACACATATATATATTTATA [CACACA_site627],9.55 ± 0.48
9,TGTAGTCTGGAGAAACGTACATAGTATCTGGTAACC [XGTACX_site4939],8.02 ± 0.71
10,ATATAAAAAGTGTATCGTACATTTACTTATTTTATA [XGTACX_site6249],7.64 ± 0.42
11,ATAAAAAAAGGACACACACACATATATATATATATA [CACACA_site5662],9.45 ± 0.3
12,ATTGAAAATTGTTGCACACATAATAATTAAATATAT [CACACA_site1857],9.1 ± 0.19
13,GTTTATTTATTATAATGTACATTAGTCTGAGGAGTT [XGTACX_site4035],8.04 ± 0.57
14,TTTTATTTATATATAGTGCATATTATTATAAAACAA,10.48 ± 0.071
15,ATATATATATATATATGTACATATGTTAATCTGCAT [XGTACX_site1068],9.44 ± 0.42
16,CTTTTTTTCCATTAAGCATGCACATTCATATTTACT [TGCATGCA_site170],8.31 ± 0.81
17,TATATATATATAGGTTGTACATTTTGATGTTTACGT [XGTACX_site5503],9.49 ± 0.26
18,TACTTTTTTTTTTTTTTTTTTTTTTTTTCCCTTTTT [CACACA_negctrl_site761],7.47 ± 0.53
19,TTATTACGAACTCTGCAACATATATAAATAAATAAA [CACACA_negctrl_site44],7.83 ± 0.47
